# Experimental data reported in PubChem BioAssay AID686979 (National Center for Advancing Translational Sciences (NCATS), 2013).
# Hit rate of the full screen: of about 420,000 compounds, about 50,000 (12%) were called active. This list was built around the results that the source calls inconclusive (neither active nor inactive); the mix of calls is not that of the screen. The call rests on the fitted dose curve; in most records, active means well fitted inhibition curve with a large enough effect; inconclusive means small, poorly fitted or top-dose-only effect; inactive means flat fitted curve, though single readings scatter. Potencies of inconclusive entries are left out as doubtful fits.
# Experiment: qHTS for Inhibitors of human tyrosyl-DNA phosphodiesterase 1 (TDP1): qHTS in cells in presence of CPT; further: nearly all actives have a fitted effect of over 55% in size
# Conditions: chicken DT40 Tdp1-/-;hTDP1 cells + 20 nM CPT, ATP luminescence, 48 h; activity change, negative = growth inhibition: at 46.2 µM (top of the series) unless noted
# Summary of the method: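 Cell growth measured by CellTiter-Glo luminescence after a minimum 48 h, 37 C compound exposure with 20 nM CPT in Tdp1-knockout DT40 cells stably expressing hTDP1, seeded 400/well; qHTS titration format.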
# On the % scale 0 is the no-effect control and ±100 the full control effect; potency means the concentration at half of the fitted maximal effect; tags describe the fitted curve by direction and shape.
SMILES,Potency,"activity change, negative = growth inhibition"
Cc1cc(=O)n(CC(=O)Nc2cccc([N+](=O)[O-])c2)c(-n2nc(C)cc2C)n1,active: 20.6 µM,
CC(NC(=O)c1ccc2nc(Cc3ccccc3)oc2c1)c1ccccc1 (centres undefined),"inconclusive [inhibitor, single point]",
CCOc1ccc(-c2c(C(=O)N/N=C(\C)c3cccs3)nnn2-c2nonc2N)cc1,,inactive: 8.15%
COc1ccc2c(c1)OC/C(=C/c1cccs1)C2=O,,inactive: 2.88%
Cc1c(Cl)cccc1NC(=O)C(=O)NCC(c1cccnc1)N1CCN(c2ccccc2)CC1 (centres undefined),active: 16.4 µM,
C=C(C)CNC(=S)NN=C1c2ccccc2-c2ccccc21,"inconclusive [inhibitor, single point]",
COc1ccc(NC(=O)Cn2cc(C(=O)C3CCCCC3)c3ccccc32)cc1,"inconclusive [inhibitor, single point]",
CCCN1CCc2c(sc(NC(=O)c3ccc(S(=O)(=O)N4CCN(C(=O)OCC)CC4)cc3)c2C(N)=O)C1,"inconclusive [inhibitor, single point]",
O=C(C(=O)N1CCN(c2ccccc2)CC1)c1ccccc1,,inactive: 13.6%
Cc1[nH]nc2c1/C(=N\O)CC(C)(C)C2,,inactive: -18.9%
O=C(Nc1ccc(C(=O)N2CCN(c3ccc(F)cc3)CC2)cc1)C1=CSCCO1,"inconclusive [inhibitor, single point]",
CC1CCN(c2ccc(NC(=O)c3ccc(Br)o3)cc2)CC1,,inactive: 2.89%
O=C(C=Cc1cccc(O)c1)c1ccccc1O,"inconclusive [inhibitor, full curve, poor fit]",
O=C1[C@H]2CCC=C[C@H]2[C@H](c2ccccc2Br)N1Cc1ccccc1,"inconclusive [inhibitor, single point]",
O=S(=O)(NCCN1CCOCC1)c1ccc(Oc2ccccc2Cl)cc1,"inconclusive [inhibitor, single point]",
CCc1ccccc1NC(=O)C(C)n1nc(-c2ccc(C)c(C)c2)ccc1=O (centres undefined),active: 23.1 µM,
COCCN(CCOC)Cc1c(O)ccc2c1O/C(=C\c1ccco1)C2=O,"inconclusive [inhibitor, partial curve]",
CCOC(=O)C1CCN(c2nc3ccccc3nc2C(C#N)C(=O)OC(C)COC)CC1 (centres undefined),active: 20.6 µM,
O=C(C1CCN(S(=O)(=O)Cc2ccccc2)CC1)N1CCN(c2ccccc2F)CC1,,inconclusive: -30% [inhibitor]
CCCCNC(=O)C1C(c2ccc(C(F)(F)F)cc2)=Nc2ccccc2N1C(C)=O (centres undefined),"inconclusive [inhibitor, single point]",
COc1cccc2sc3cc(C#Cc4ccccn4)ccc3c(=O)c12,active: 18.4 µM,
COc1cccc(N2CCN(c3c4c(nc5ncnn35)CCC4)CC2)c1,"inconclusive [inhibitor, partial curve, poor fit]",

SMILES,Potency,"activity change, negative = growth inhibition"
CS(=O)(=O)N1CCC(C(=O)Nc2ccc(Cl)c(C(F)(F)F)c2)CC1,"inconclusive [inhibitor, partial curve, poor fit]",
N#CC(Cc1cc2ccccc2n1S(=O)(=O)c1ccccc1)OCc1ccccc1 (centres undefined),,inactive: -17.2%
COC(=O)c1c(NC(=O)CN2CCC3(O)CCCCC3C2c2cc(OC)ccc2OC)sc(C)c1C (centres undefined),active: 13 µM,
C=CCCC(=O)N1C[C@H]2CON(C)[C@H]2C[C@H]1c1cccc(Br)c1,,inactive: 1.4%
CC(C)(C)c1ccccc1OCCCCCNCCO,"inconclusive [inhibitor, single point]",
Cc1ccc(C)c(Nc2nc3nonc3nc2Nc2cccc(C)c2C)c1,active: 3.66 µM,
COc1ccc(-c2csc(N(CCCN(C)C)C(=O)c3ccccc3C)n2)cc1,active: 3.66 µM,
CC1=NOC(=O)/C1=C\c1ccc(-c2cc(Cl)ccc2Cl)o1,"inconclusive [inhibitor, full curve, poor fit]",
Cc1ccc(NC(=S)NNC(=S)Nc2cccc(C(F)(F)F)c2)cc1,"inconclusive [inhibitor, single point]",
CCN(CC)c1cc(C)c2cc(NC(=O)c3ccc(Br)o3)ccc2n1,"inconclusive [inhibitor, single point]",
COc1ccc(Cl)cc1NC(=O)N1CCC(CN2CCCCCC2)CC1,"inconclusive [inhibitor, single point]",
CCS(=O)(=O)Nc1cc(-c2nc3cccnc3s2)ccc1C,"inconclusive [inhibitor, partial curve]",
Cc1cccc(CN2C3=NCCCN3c3ccccc32)c1,active: 20.6 µM,
CC(C)Cc1nnc(NC(=O)CCC(=O)N2CCN(c3ccc(Cl)cc3)CC2)s1,active: 20.6 µM,
O=C(Nc1ccccc1OCc1cc(=O)n2ccccc2n1)c1ccccc1F,"inconclusive [inhibitor, single point]",
CC(C)(C)OC(=O)N1CCC(NC(=O)c2nc[nH]c2C(=O)NCC(=O)OCc2ccccc2)CC1,"inconclusive [inhibitor, single point]",
CC1=C(C(=O)OCC2CCCCC2)C(c2ccc(Cl)cc2Cl)CC(=O)N1 (centres undefined),"inconclusive [inhibitor, single point]",
COc1ccc(C)cc1-n1nnnc1SCC(=O)c1cc(C)n(Cc2ccco2)c1C,"inconclusive [inhibitor, partial curve, poor fit]",
Cc1ccc(C(=O)NC(NC(=S)Nc2ccc(S(N)(=O)=O)cc2)C(Cl)(Cl)Cl)cc1 (centres undefined),"inconclusive [inhibitor, single point]",
COC(=O)C1(CCSC)NC(c2ccc(OC)cc2OC)C2C(=O)N(c3cccc(C(C)=O)c3)C(=O)C21 (centres undefined),,inactive: -0.339%
O=C(NCc1ccc2c(c1)OCO2)C1CCCN(S(=O)(=O)c2cccc3cccnc23)C1 (centres undefined),"inconclusive [inhibitor, single point]",
c1ccc(Nc2nc(Nc3ccccc3)nc(N3CCNCC3)n2)cc1,"inconclusive [inhibitor, single point]",
